# In the supplement of paper PMC7826260:
# The list shows a part of the results. Viral Rep nickase domains cut single-stranded DNA in vitro at 3 µM enzyme and 37 °C for 1 h; the strands have 90 letters, of which the middle is given. The score is log2 (uncut reads / reads without enzyme); the lower, the more was cut; hits are not called. Counts are relative to all reads; values above 0 arise when much of the pool is cut.
# How the values were obtained:
# Assay in all cases: uncleaved DNA left, log2 of reads against the no-enzyme library (log2 ratio); higher = less cleavage (more negative = more Rep cleavage of the k-mer); sequences stand for … in CTCGTCCG…ACCGGAGA
# [1] = system: T1, Rep nickase domain of Muscovy duck circovirus
# T1 sequence (residues 1-111, tag not shown): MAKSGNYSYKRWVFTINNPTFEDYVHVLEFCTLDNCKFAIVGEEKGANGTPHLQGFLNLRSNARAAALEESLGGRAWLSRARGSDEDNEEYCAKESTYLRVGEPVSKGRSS
# Description: (§1)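 A pool of 90-nt single-stranded DNAs with seven random bases just before the constant AC of the nick site (name = the seven bases) was cut by 3 µM recombinant His6-SUMO-tagged Rep nickase domain (300 nM DNA, 50 mM HEPES pH 8.0, 50 mM NaCl, 1 mM MnCl2, 1 h, 37 °C, three replicates). Uncut DNA was amplified and sequenced.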
# [2] = system: T2, Rep nickase domain of banana bunchy top virus
# T2 sequence (residues 1-94, tag not shown): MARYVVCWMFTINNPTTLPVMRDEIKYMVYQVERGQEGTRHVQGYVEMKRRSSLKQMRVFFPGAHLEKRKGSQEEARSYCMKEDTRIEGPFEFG
# Description: as §1
# [3] = system: T3, Rep nickase domain of cabbage leaf curl virus
# T3 sequence (residues 1-116, tag not shown): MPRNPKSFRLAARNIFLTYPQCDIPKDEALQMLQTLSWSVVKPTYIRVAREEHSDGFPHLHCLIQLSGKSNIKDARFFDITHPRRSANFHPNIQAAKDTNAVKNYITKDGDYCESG
# Description: as §1
# [4] = system: T4, Rep nickase domain of chickpea chlorotic dwarf virus
# T4 sequence (residues 1-124, tag not shown): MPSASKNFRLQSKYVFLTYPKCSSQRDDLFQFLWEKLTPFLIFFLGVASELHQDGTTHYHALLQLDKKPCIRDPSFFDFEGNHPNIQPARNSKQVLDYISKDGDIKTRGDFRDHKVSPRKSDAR
# Description: as §1
# [5] = system: T5, Rep nickase domain of faba bean necrotic yellows virus
# T5 sequence (residues 1-98, tag not shown): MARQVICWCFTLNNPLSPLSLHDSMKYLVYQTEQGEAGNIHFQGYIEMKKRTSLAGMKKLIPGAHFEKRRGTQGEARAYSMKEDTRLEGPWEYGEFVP
# Description: as §1
# [6] = system: T6, Rep nickase domain of maize striate mosaic virus
# T6 sequence (residues 1-117, tag not shown): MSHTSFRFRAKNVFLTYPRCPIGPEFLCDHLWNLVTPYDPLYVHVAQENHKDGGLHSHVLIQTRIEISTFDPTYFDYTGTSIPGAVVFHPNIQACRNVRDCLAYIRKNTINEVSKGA
# Description: as §1
# [7] = system: T7, Rep nickase domain of porcine circovirus 2
# T7 sequence (residues 2-116, tag not shown): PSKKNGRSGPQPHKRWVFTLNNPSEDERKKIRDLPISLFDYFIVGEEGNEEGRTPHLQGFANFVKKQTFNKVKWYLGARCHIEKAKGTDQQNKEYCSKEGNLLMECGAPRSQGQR
# Description: as §1
# [8] = system: T8, Rep nickase domain of tomato golden mosaic virus
# T8 sequence (residues 1-124, tag not shown): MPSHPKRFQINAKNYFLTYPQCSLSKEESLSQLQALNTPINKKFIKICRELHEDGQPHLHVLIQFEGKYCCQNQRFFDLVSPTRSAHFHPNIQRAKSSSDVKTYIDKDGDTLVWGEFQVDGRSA
# Description: as §1
# [9] = system: T9, Rep nickase domain of tomato yellow leaf curl virus
# T9 sequence (residues 1-136, tag not shown): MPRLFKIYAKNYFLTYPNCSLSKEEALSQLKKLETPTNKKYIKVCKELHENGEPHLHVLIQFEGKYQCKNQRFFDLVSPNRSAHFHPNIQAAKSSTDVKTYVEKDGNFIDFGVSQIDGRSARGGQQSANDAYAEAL
# Description: as §1
# [10] = system: T10, Rep nickase domain of wheat dwarf virus
# T10 sequence (residues 1-137, tag not shown): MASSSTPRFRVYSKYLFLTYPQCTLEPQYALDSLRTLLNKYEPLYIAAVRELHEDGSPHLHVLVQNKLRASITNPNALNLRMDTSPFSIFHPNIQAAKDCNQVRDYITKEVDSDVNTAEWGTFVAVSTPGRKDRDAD
# Description: as §1
Sequence,uncleaved DNA left (log2) [1],uncleaved DNA left (log2) [2],uncleaved DNA left (log2) [3],uncleaved DNA left (log2) [4],uncleaved DNA left (log2) [5],uncleaved DNA left (log2) [6],uncleaved DNA left (log2) [7],uncleaved DNA left (log2) [8],uncleaved DNA left (log2) [9],uncleaved DNA left (log2) [10]
CAATTAG,0.122,0.101,-0.769,-0.00344,0.165,-0.951,0.2,-0.00873,0.164,-0.0517
ATGGGGA,0.0938,-0.122,0.413,0.829,0.0685,1,0.203,0.0376,-0.0996,-0.113
GGAGTTT,0.101,-0.0201,0.597,1.05,-0.0825,1.85,0.0748,0.0968,0.0138,0.0786
GAACGGT,0.0446,0.0165,0.517,1.37,0.104,1.9,0.0342,0.183,-0.0349,0.0675
GAGGTGC,-0.0948,-0.094,-0.0886,0.0103,-0.111,-0.34,0.0167,-0.127,-0.0865,-0.153
TCAGCTA,-0.0131,0.0251,0.207,-0.404,-0.00171,0.387,0.0895,0.0569,-0.0034,-0.0125
AATGTCA,-0.0595,-0.111,-0.208,-1.53,-0.0555,-0.418,-0.105,-0.0104,0.0124,-0.0698
AAGTGAG,0.0411,0.0284,-0.394,-0.398,0.0749,-0.834,0.291,0.117,0.0611,-0.0705
CTCCGAG,0.0748,0.116,0.82,1.72,0.0946,1.42,0.164,0.076,0.0514,0.264
AATTGAA,-0.818,-0.198,-0.396,-0.727,0.126,-1.13,-2.57,0.0474,0.0673,-0.000853
TAATCGC,-0.0232,0.0273,-3.61,-2.86,0.0757,-2.64,0.0415,-2.86,-0.0081,-3.12
TGATGTC,0.0344,-0.0281,0.182,0.257,0.0407,-0.014,0.0478,0.0168,0.0364,0.0621
TGGTGCC,-0.095,0.0261,0.0489,0.0721,0.00643,-0.208,0.00353,-0.114,-0.0342,-0.0374
ATGATCA,0.045,0.15,0.259,-0.469,0.109,-0.0868,0.0993,0.0789,0.0676,0.155
TGTGAGC,0.0597,-0.00291,0.0388,0.0293,-0.0558,-0.426,-0.0189,-0.0488,-0.205,-0.102
AATACTT,-1,-3.36,-1.81,-2.89,-0.0656,-0.596,-3.46,-0.0746,-0.0967,-0.304
TGTGTTT,0.0133,-0.0973,0.197,-1.03,-0.022,0.485,-0.421,-0.0743,-0.0971,-0.106
CAGGAAA,0.123,0.061,0.275,1.08,0.0119,1.1,0.216,0.157,-0.0502,0.101
GTCTTGA,-0.000802,0.0907,0.304,0.79,-0.0172,1.7,0.11,0.129,0.0592,0.0144
GGCGGTC,-0.00224,-0.0696,0.295,0.786,0.0018,0.97,-0.0155,-0.00694,-0.172,0.0205
TTGCCCT,-0.792,-0.465,-0.323,-1.67,-0.00114,-0.885,-2.39,-0.248,0.0585,-0.0316
AAACAAG,-0.126,0.0375,-0.89,-0.448,-0.0325,-1.1,0.163,-0.0622,0.0196,-0.188
TATTAAC,-0.0106,0.0525,-0.175,-1.84,0.0766,-0.504,-0.186,-0.0181,0.0563,0.0245
TGGCGCT,-0.0858,-0.181,-0.444,-0.723,-0.131,-0.744,-0.137,-0.175,-0.22,-0.277
GGACGCA,0.12,0.101,0.775,1.64,0.113,2.11,0.247,0.1,0.0761,0.151
CGGGTAT,0.15,0.197,0.697,1.58,0.122,1.96,0.138,0.138,0.0544,0.0666
TATTGTA,-3.14,-2.11,-0.503,-2.2,-0.0239,-1.19,-3.05,-0.2,0.067,-0.129
TGTAGCG,0.0534,0.0305,-0.752,0.33,0.0161,-0.787,0.177,-0.0851,0.0426,-0.212
CGCCCTA,-0.0644,0.0377,-0.0826,-0.508,0.0456,-0.249,-0.236,-0.0398,-0.0178,-0.00447
CGCTTGG,-0.0439,-0.0842,-0.389,-0.283,-0.0979,-0.913,-0.021,-0.0816,-0.21,0.00771
